Data taken from ChEMBL document CHEMBL4414601 (J Med Chem, 2019).
Converted amounts (≈) assume the structure as drawn.

Tests used:
[1] = Lipophilicity, LogD of compound by reverse phase HPLC analysis
[2] = Aqueous solubility of compound; conditions: buffer
L929 = experiment: Cytotoxicity against mouse L929 cells assessed as reduction in viability by dual luciferase reporter gene assay; assay type: ADME, cell-based
[3] = Clearance in mouse liver microsomes at 0.5 uM measured up to 45 mins in presence of NADPH by HPLC-MS/MS analysis; assay type: ADME, Microsome
[4] = Clearance in rat liver microsomes at 0.5 uM measured up to 45 mins in presence of NADPH by HPLC-MS/MS analysis; assay type: ADME, Microsome
[5] = Clearance in human liver microsomes at 0.5 uM measured up to 45 mins in presence of NADPH by HPLC-MS/MS analysis; assay type: ADME, Microsome
[6] = Permeability of compound by PAMPA

Compound	chromatographic logD [1]	solubility [2] [µM]	EC50 (L929) [µM]	CLH [3] [mL/min/g]	CLH [4] [mL/min/g]	CLH [5] [mL/min/g]	Papp [6] [×10⁻⁶ cm/s]
CC(=O)Nc1nc(-c2ccc(F)cc2)c(-c2ccnc(Nc3ccc(N4CCNCC4)cc3)n2)s1	2.89	8 (≈ 3.92 µg/mL)	1.6	0.97	0.74	0.4	–
CN1CCC(c2nc(-c3ccc(F)cc3)c(-c3ccnc(Nc4ccc(N5CCNCC5)cc4)n3)s2)CC1	2.38	284 (≈ 150 µg/mL)	–	0.48	0.46	0.57	12
Fc1ccc(-c2nc(C3CCNCC3)sc2-c2ccnc(Nc3ccncn3)n2)cc1	2.22	69 (≈ 29.9 µg/mL)	5.4	2.02	0.68	0.82	18
Cc1cc(Nc2nccc(-c3sc(C4CCNCC4)nc3-c3ccc(F)cc3)n2)cc(C)n1	2.36	142 (≈ 65.4 µg/mL)	5	3.44	1.19	1.3	19
Fc1ccc(-c2nc(C3CCNCC3)sc2-c2ccnc(NCc3ccncc3)n2)cc1	2.26	315 (≈ 141 µg/mL)	15.5	4.54	1.42	5.02	16
